The whole screen tested about 310,000 compounds, of which about 2,200 (0.71%) showed an effect of 50% or more. The effect is printed as a negative number. This is one part of the list.
target: human ether-à-go-go-related gene (hERG) potassium channel (human, UniProt Q12809); assay: primary screen, population patch clamp on CHO cells stably expressing hERG
Sequence (Q12809 whole entry, looked up): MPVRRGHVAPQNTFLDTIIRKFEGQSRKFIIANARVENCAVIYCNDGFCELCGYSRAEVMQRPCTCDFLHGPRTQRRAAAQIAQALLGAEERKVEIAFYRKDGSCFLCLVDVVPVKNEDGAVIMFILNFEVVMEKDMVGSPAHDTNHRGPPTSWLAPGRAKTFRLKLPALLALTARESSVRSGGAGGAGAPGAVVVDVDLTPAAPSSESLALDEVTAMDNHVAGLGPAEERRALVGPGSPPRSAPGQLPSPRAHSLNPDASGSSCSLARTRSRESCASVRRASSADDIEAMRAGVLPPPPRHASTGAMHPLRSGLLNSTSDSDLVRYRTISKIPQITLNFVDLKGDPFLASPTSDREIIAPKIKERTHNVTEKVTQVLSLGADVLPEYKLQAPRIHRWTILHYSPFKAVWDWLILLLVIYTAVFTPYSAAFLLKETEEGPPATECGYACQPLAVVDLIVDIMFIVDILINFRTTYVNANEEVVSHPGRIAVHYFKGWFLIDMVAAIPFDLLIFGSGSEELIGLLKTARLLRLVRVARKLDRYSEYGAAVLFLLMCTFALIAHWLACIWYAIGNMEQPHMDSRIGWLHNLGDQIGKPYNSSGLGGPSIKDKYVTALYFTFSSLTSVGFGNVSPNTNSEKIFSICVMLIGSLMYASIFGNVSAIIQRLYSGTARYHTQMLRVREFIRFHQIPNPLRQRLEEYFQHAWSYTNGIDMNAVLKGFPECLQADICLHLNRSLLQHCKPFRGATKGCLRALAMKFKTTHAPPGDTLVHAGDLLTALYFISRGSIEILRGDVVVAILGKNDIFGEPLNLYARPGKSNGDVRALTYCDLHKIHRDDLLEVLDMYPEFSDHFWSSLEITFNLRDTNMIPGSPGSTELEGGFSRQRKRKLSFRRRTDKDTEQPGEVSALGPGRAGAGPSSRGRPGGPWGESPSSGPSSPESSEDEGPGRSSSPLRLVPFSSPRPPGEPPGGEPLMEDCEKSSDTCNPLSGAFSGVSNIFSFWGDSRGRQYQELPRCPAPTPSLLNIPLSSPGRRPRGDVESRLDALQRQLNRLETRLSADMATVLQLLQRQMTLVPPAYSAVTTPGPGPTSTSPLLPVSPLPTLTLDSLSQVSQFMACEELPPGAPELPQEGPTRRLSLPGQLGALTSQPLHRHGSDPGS

SMILES	hERG current change (%, negative = inhibition) at 1uM [%]
CC1CN(C)C(C)C/C1=N/Oc1ccccc1[N+](=O)[O-].Cl (stereo not shown)	2.66
CC1C/C(=C/c2cccs2)C(=O)/C(=C/c2cccs2)C1 (stereo not shown)	11.7
O=C1Nc2ccccc2C(O)(C(=O)NCc2ccc3c(c2)OCO3)N1c1ccc(Cl)c(Cl)c1 (stereo not shown)	18.1
Cc1ccc2cc(CCNC(=O)CC(C)C)c(=O)[nH]c2c1	7.29
O=C(Cn1cnc2c(nnn2-c2ccccc2)c1=O)NCc1ccc(F)cc1	1.19
COC(=O)c1cccc(Nc2ncnc3ccc(C)cc23)c1	-3.79
O=C(COC(=O)c1ccc(O)cc1)Nc1nccs1	19.3
Cc1ccc(S(=O)(=O)NCCC(=O)NCC(c2cccs2)N(C)C)cc1 (stereo not shown)	3.8
CCc1ccccc1NC(=O)c1cc2ncc(Br)cn2n1	14.8
CCOc1ccc(S(=O)(=O)N(CC(=O)N2CCC(C(N)=O)CC2)c2ccc(F)cc2)cc1	-11
Cn1cc(/C=C/C(=O)N2CCCC(C(=O)c3cccc(C(F)(F)F)c3)C2)cn1 (stereo not shown)	1.1
Cc1ccc(-n2nc3c(c2NC(=O)c2ccc4c(c2)OCO4)CS(=O)(=O)C3)cc1C	13.1
O=C(c1ccc(Cl)cc1)N1CCCC(C(=O)N2CCc3ccccc3C2)C1 (stereo not shown)	-1.16
Cc1ccc([N+](=O)[O-])cc1N/C=C1\CCc2ccccc2C1=O	7.95
Cc1ccc(-c2ccnc3nc(Sc4ncc(C(F)(F)F)cc4Cl)nn23)cc1	7.96
Cc1cccc(C)c1NC(=O)C1CCCNC1 (stereo not shown)	-11.5
COc1ccc(NS(=O)(=O)c2cccc(C(=O)NNC(=O)c3cncc(Br)c3)c2)cc1	11.7
COc1cccc2nc3cc(C)c(C)cc3nc12	10.3
CCCNC(=O)N1CCN(C(=O)NCCC)CC1	11.3
Cc1ccc(-n2cc(CNCCN3CCOC3=O)c(-c3ccc(F)cc3)n2)cc1	-6.78
CCS(=O)(=O)N1CCC(C(=O)NCc2ccccc2OC)CC1	2.28
c1cncc(-c2nnc3sc(-c4ccco4)nn23)c1	-5.51
COc1ccc(S(=O)(=O)n2cnc3cc(C)c(C)cc32)cc1C	11
CCOC(=O)c1[nH]c(C)c(C(=O)N2CCN(C(=O)OCC)CC2)c1CC	12.4
COc1cc(C(=O)NNC(=O)c2ccc(NC(C)=O)cc2)cc(OC)c1OC	9.47
CC1CCCN(c2c([N+](=O)[O-])cc(C(=O)O)cc2[N+](=O)[O-])C1 (stereo not shown)	10.5
CC(=O)Nc1ccc(NC(=O)c2c(-c3ccccc3)noc2C)cn1	14.9
COc1cc(OC)cc(C(=O)NNC(=O)CCCOc2ccccc2)c1	-2.29

SMILES	hERG current change (%, negative = inhibition) at 1uM [%]
COc1cc2c(cc1OC)CN(C(=O)C1CCCN1S(=O)(=O)c1ccc(F)cc1)CC2 (stereo not shown)	17
CC(=O)N1CCN(Cc2nc3cc(NC(=O)Cn4nc(C)c5ccccc5c4=O)ccc3n2C)CC1	18.5
Cc1ccccc1C(CC(=O)c1cccs1)C(C#N)C#N (stereo not shown)	18.2
CC(C)OCCCNC(=O)c1ccc(CS(=O)(=O)c2cccc(C(F)(F)F)c2)o1	7.87
CCc1n[nH]c(=O)c2cc3cc(OC)ccc3n12	12.3
Cc1cc(NC(=O)CCC(=O)N(c2ccccc2)C(C(=O)NC2CCCCC2)c2cccs2)no1 (stereo not shown)	7.72
COc1ccc(Cl)cc1NC(=O)CN(C)C(=O)CCNC(=O)c1ccccc1OC	11.3
CCN(CC)C(=O)C(C)OC(=O)COc1ccc(Cl)cc1C (stereo not shown)	-0.579
Cc1cccc(OCC(O)Cn2c(-n3nc(C)cc3C)nc3c2c(=O)[nH]c(=O)n3C)c1 (stereo not shown)	2.89
COc1ccc(Cl)cc1NC(=O)NC(C)C(C)(C)C (stereo not shown)	8.96
COc1cc(C(=O)COC(=O)Cc2cnc3sccn23)cc(OC)c1OC	11.1
C=CCc1ccc(OCCCCN2CCC(C)CC2)c(OC)c1	-37.3
CC(=O)Nc1ccc(NC(=O)c2ccco2)cc1	6.96
CCN(Cc1nc(-c2ccc(C)cc2)no1)C(=O)c1ccco1	13.4
COc1cc(NC(=O)c2csc(-c3ccncc3)n2)cc(C(=O)Nc2cccc(C(F)(F)F)c2)c1	-4.22
COc1ccc(N2CCCCn3c2nc2c3c(=O)n(C)c(=O)n2C)cc1	-0.579
Cc1ccc(-n2ncc3c(N4CCC5(CC4)OCCO5)ncnc32)c(C)c1	16.7
CCOc1cc(/C=C2\C(=N)N3N=C(S(C)(=O)=O)SC3=NC2=O)ccc1OCCOc1cccc(OC)c1	6.69
O=C(O)c1cnn2c(C(F)(F)F)cc(-c3ccco3)nc12	21.1
CSc1ccccc1C(=O)Nc1cc(C)cc(C)c1	6.17
O=c1n(Cc2ccc(Cl)cc2)c2sc3c(c2c2ncnn12)CCCC3	-5.66
C[C@@]12CCC[C@@](C)(C(=O)O)C1CC[C@@]13C[C@@H](NCc4ccccc4)[C@@](C)(CCC12)C3 (stereo partly shown)	4.86
COc1ccc(N(CC(=O)NCCSCc2ccco2)S(=O)(=O)c2ccccc2)cc1Cl	-9.52
CCn1ncc(/C=N\NC(=O)COc2cc(C)cc(C)c2)c1C	13.4
O=C(c1ccc(Cl)c(S(=O)(=O)N2CCCC2)c1)N1CCCCC1	12.1
O=c1[nH]c(-c2ccc3c(c2)OCO3)nc2c1sc(=S)n2-c1ccccc1	12.2
O=C(c1ccc(CS(=O)c2ccccc2Cl)o1)N1CCN(c2ccccn2)CC1 (stereo not shown)	-3.08

Source: publication PMC4336329 (PLoS ONE, 2015)
